# The whole screen tested about 120,000 compounds, of which about 5,300 (4.4%) were called active. The inconclusive results got no clear call from the source; some entries with a clear call stand among them for comparison. The call rests on the fitted dose curve; in most records, active means well fitted inhibition curve with a large enough effect; inconclusive means small, poorly fitted or top-dose-only effect; inactive means no such curve, though single readings can be large or run the other way. A potency beside an inconclusive call is a rough fit, not a confirmed value.
# Experiment: qHTS Primary assay for Inhibitors of Plasmodium falciparum Dd2 growth in vitro; further: nearly all actives have a fitted effect of over 65% in size
# Settings: P. falciparum Dd2 growth, SYBR Green, 72 h; series mostly up to 28.9 µM
# How it was run: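 Infected erythrocytes (Dd2, 0.3% parasitemia, 2.5% hematocrit final) are added to compound in RPMI-1640/Albumax II medium, grown 72 h at 37C in low oxygen, then lysed with saponin/Triton-X containing SYBR Green and read by fluorescence.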
# Potency means the concentration at half of the fitted maximal effect; tags describe the fitted curve by direction and shape.
row,Structure (SMILES),Potency
1,Fc1ccc2nc([C@H]3CCN(C4CCC4)C3)[nH]c2c1,"inconclusive: 25.1 µM [inhibitor, partial curve, poor fit]"
2,CC(=O)N[C@@H]1C=C[C@@H](c2c(C)nn(-c3ccc(C(F)(F)F)cc3)c2C)C1,"inconclusive: 14.1 µM [inhibitor, single point]"
3,COc1ccc(CC(=O)NC2CCN(c3cc(-c4ccc(F)cc4)[nH]n3)C2)cc1OC (stereo not given),inactive
4,COc1ccc(-c2cn3cccnc3n2)cc1NC(=O)Nc1ccc(Cl)cc1,"inconclusive: 17.8 µM [inhibitor, single point]"
5,CN(Cc1cccnc1)C1CN(C(=O)c2ccc3ccccc3n2)C1,inactive
6,COCCN1Cc2nc(Nc3ccccc3F)ccc2OCC1=O,"inconclusive: 2.24 µM [inhibitor, full curve]"
7,CN(C)Cc1ccccc1-c1ccc2n(c1=O)C[C@H]1C[C@@H]2CN(C(=O)C2CCCCC2)C1,inactive
8,C=C[C@H]1CN2CC[C@H]1C[C@@H]2CNCc1ccc(OC)cc1,"inconclusive: 3.55 µM [inhibitor, single point]"
9,COC1CN(c2cccc(F)c2)C12CCN(C(=O)c1cccnc1)CC2 (stereo not given),inactive
10,CC(C)c1nn2c(=O)cc(COC(=O)c3ccc(NC(=O)C4CCCCC4)cc3)nc2s1,inactive
11,CCCOc1cc(C)c2c(c1C)C[C@H](C(C)C(=O)N1CCN(CC(=O)O)CC1)CC2 (stereo not given in full),"inconclusive: 10 µM [inhibitor, partial curve]"
12,O=C(Nc1cccc(F)c1)N1CCC(CCNC(=O)C2(c3ccccc3)CC2)CC1,"inconclusive: 14.1 µM [inhibitor, partial curve, poor fit]"
13,O=C(NCCOc1ccccc1)c1cnc2n1CCN(Cc1ccc3[nH]ccc3c1)CC2,active: 12.6 µM
14,CCOc1ccc(C(C)NC(=O)C2CCCN(c3cnc4nccnc4c3)C2)cc1 (stereo not given),"inconclusive: 17.8 µM [inhibitor, single point]"
15,O=C(N1CCCC1)N1C2CCC1CN(c1ccc(C(F)(F)F)cc1)C2,"inconclusive: 12.6 µM [inhibitor, single point]"
16,O=C1CC(c2ccccc2)N(Cc2ccc3[nH]ccc3c2)CCCCCN1 (stereo not given),active: 7.94 µM
17,CCSc1ccccc1C(=O)Nc1ccc(-c2nc3ccccc3s2)c(O)c1,"inconclusive: 12.6 µM [inhibitor, partial curve, poor fit]"
18,Cc1ccccc1Cn1c2ccccc2c2cnn(CC(=O)NCc3ccccn3)c(=O)c21,inactive
19,O=C(N[C@H](Cc1ccccc1)C1CC(O)C1)c1ccc2nccn2c1 (stereo not given in full),inactive
20,CNC(=O)[C@@H]1CN(C(=O)c2ccoc2C)C[C@H]1c1nc(C)no1,inactive
